We go through four molecules from patent publication US20260207762A1 (ANAVEON, published 2026).

This experiment addresses IL-2R on NK cells and CD8 T cells of murine splenocytes (C57BL/6 mice) (mouse). Briefly: cell-based or functional assay.

B1: DRO069 (other)
heavy: QVQLVESGGGVVQPGRSLRLSCAASGYTFSSYLIEWVRQAPGKGLEWVAVINPGSGGTNYADSVKGRFTISADKSKNTAYLQMNSLRAEDTAVYYCARWRGDGYYAYFDVWGQGTTVTVSSASTKGPSVFPLAPSSKSTSGGTAALGCLVKDYFPEPVTVSWNSGALTSGVHTFPAVLQSSGLYSLSSVVTVPSSSLGTQTYICNVNHKPSNTKVDKRV[not shown - human IgG1 Fc with changes]
light: EIVLTQSPATLSVSPGERATLSCRASQSVSYGGGNFHLRPRDLISNINVIVLELKGSETTFMCEYADETATIVEFLNRWITFSQSIISTLTPTSSSTKKTQLQLEHLLLDLQMILNGINNYKNPKLTRMLTFKFYMPKKATELKHLQCLEEELKPLEEVLNLAQSKGGGGDSYMNWYQQKPGQAPRLLIYAASNLASGIPARFSGSGSGTEFTLTISSLQSEDAAVYYCQQSNEDPYTFGGGTKVEIKRTVAAPSVFIFPPSDEQLKSGTASVVCLLNNFYPREAKVQWKVDNALQSGNSQESVTEQDSKDSTYSLSSTLTLSKADYEKHKVYACEVTHQGLSSPVTKSFNRGEC
Turning to B1, the “EC50 NK cells (nM), pSTAT5+ cells in mouse splenocytes” value (from here on “EC50 NK cells (nM), pSTAT5+ cells”) was 0.9 nM.

B2: ECV200 (other)
heavy: QVQLVESGGGVVQPGRSLRLSCAASGYTFSSYLIEWVRQAPGKGLEWVAVINPGSGGTNYADSVKGRFTISADKSKNTAYLQMNSLRAEDTAVYYCARWRGDGYYAYFDVWGQGTTVTVSSASTKGPSVFPLAPSSKSTSGGTAALGCLVKDYFPEPVTVSWNSGALTSGVHTFPAVLQSSGLYSLSSVVTVPSSSLGTQTYICNVNHKPSNTKVDKRV[not shown - human IgG1 Fc with changes]
light: EIVLTQSPATLSVSPGERATLSCRASQSVSYGGGGSGNFHLRPRDLISNINVIVLELKGSETTFMCEYADETATIVEFLNRWITFSQSIISTLTPTSSSTKKTQLQLEHLLLDLQMILNGINNYKNPKLTRMLTFKFYMPKKATELKHLQCLEEELKPLEEVLNLAQSKGGGGSGGDSYMNWYQQKPGQAPRLLIYAASNLASGIPARFSGSGSGTEFTLTISSLQSEDAAVYYCQQSNEDPYTFGGGTKVEIKRTVAAPSVFIFPPSDEQLKSGTASVVCLLNNFYPREAKVQWKVDNALQSGNSQESVTEQDSKDSTYSLSSTLTLSKADYEKHKVYACEVTHQGLSSPVTKSFNRGEC
Regarding B2, the “EC50 NK cells (nM), pSTAT5+ cells” value came to 0.9 nM.

B3: BFC885 (other)
heavy: QVQLVESGGGVVQPGRSLRLSCAASGYTFSSYLIEWVRQAPGKGLEWVAVINPGSGGTNYADSVKGRFTISADKSKNTAYLQMNSLRAEDTAVYYCARWRGDGYYAYFDVWGQGTTVTVSSASTKGPSVFPLAPSSKSTSGGTAALGCLVKDYFPEPVTVSWNSGALTSGVHTFPAVLQSSGLYSLSSVVTVPSSSLGTQTYICNVNHKPSNTKVDKRV[not shown - human IgG1 Fc with changes]
light: EIVLTQSPATLSVSPGERATLSCRASQSVSYGGGGSGGGGSGGGNFHLRPRDLISNINVIVLELKGSETTFMCEYADETATIVEFLNRWITFSQSIISTLTPTSSSTKKTQLQLEHLLLDLQMILNGINNYKNPKLTRMLTFKFYMPKKATELKHLQCLEEELKPLEEVLNLAQSKGGGGSGGGGSGGGGDSYMNWYQQKPGQAPRLLIYAASNLASGIPARFSGSGSGTEFTLTISSLQSEDAAVYYCQQSNEDPYTFGGGTKVEIKRTVAAPSVFIFPPSDEQLKSGTASVVCLLNNFYPREAKVQWKVDNALQSGNSQESVTEQDSKDSTYSLSSTLTLSKADYEKHKVYACEVTHQGLSSPVTKSFNRGEC
B3: the “EC50 NK cells (nM), pSTAT5+ cells” value is 2 nM.

B4: XFO227 (other)
heavy: EVQLVQSGAEVKKPGESLKISCKGSGYAFTNYLIEWVRQMPGKGLEWMGVINPGSGGTNYNEKFKGQVTISADKSISTAYLQWSSLKASDTAMYYCARWRGEGYYAYFDVWGQGTTVTVSSASTKGPSVFPLAPSSKSTSGGTAALGCLVKDYFPEPVTVSWNSGALTSGVHTFPAVLQSSGLYSLSSVVTVPSSSLGTQTYICNVNHKPSNTKVDKRV[not shown - human IgG1 Fc with changes]
light: AIRLTQSPSSFSASTGDRVTITCKASQSVDYGGNFHLRPRDLISNINVIVLELKGSETTFMCEYADETATIVEFLNRWITFSQSIISTLTPTSSSTKKTQLQLEHLLLDLQMILNGINNYKNPKLTRMLTFKFYMPKKATELKHLQCLEEELKPLEEVLNLAQSKGGGDSYMNWYQQKPGKAPKLLIYAASNLESGVPSRFSGSGSGTDFTLTISSLQSEDFATYYCQQSNEDPYTFGGGTKVEIKRTVAAPSVFIFPPSDEQLKSGTASVVCLLNNFYPREAKVQWKVDNALQSGNSQESVTEQDSKDSTYSLSSTLTLSKADYEKHKVYACEVTHQGLSSPVTKSFNRGEC
With B4, the “EC50 CD8 cells (nM), pSTAT5+ cells in mouse splenocytes” value was 8 nM.
